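Briefly, cells in 96-well plates were exposed to five compound concentrations for 48 h, and endpoints were estimated by linear interpolation. GI50 is the concentration that inhibits growth by half.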 Active and inactive are the calls of the source. Rule as the data show it: active = GI50 up to about 1.1 µM and inactive = higher.
What follows are compounds tested on NCI-H322M (assay: NCI tumour cell line growth inhibition, 48 h).

Row | Structure (SMILES) | GI50
1 | NP(=O)(OCC1=CC(=O)c2ccccc2C1=O)N(CCBr)CCBr (stereo unspecified) | inactive: 4.68 µM
2 | Cc1ccc(S(=O)(=O)NC(=O)Nc2nnc(S(N)(=O)=O)s2)cc1 | inactive: > 100 µM
3 | Oc1ccc(NCc2cc(O)ccc2O)cc1 | inactive: 16.2 µM
4 | CCC1C(C#N)=C(N)OC2=C1C(=O)CC(C)(C)C2 (stereo unspecified) | inactive: > 100 µM
5 | C[C@]12CC[C@@H]3c4ccc(O)cc4CC[C@H]3[C@@H]1C/C(=C\c1ccncc1)C2=O | inactive: 33 µM
6 | COC(=O)c1cc2c(n1S(=O)(=O)c1ccc(C)cc1)C(=O)C(=O)c1[nH]cc(C(=O)OCc3ccccc3)c1-2 | active: 0.175 µM
7 | COc1ccc(/C=C/C=C2C(=O)NC(=S)NC2=O)cc1 | inactive: 18.8 µM
8 | Cc1cc2c(cc1C)[n+]([O-])c(C(F)(F)F)c(C(=O)c1ccccc1)[n+]2[O-] | inactive: 4.7 µM
9 | CC(=O)Nc1ccc(S(=O)(=O)Nc2nc(-c3ccc(Cl)cc3)cc(N3N=C(c4ccc(Br)cc4)CC3c3ccccc3)n2)cc1 (stereo unspecified) | inactive: 12.2 µM
10 | Cc1ccccc1NC(=O)C(=O)C(C#N)c1ccccc1C (stereo unspecified) | inactive: > 100 µM
11 | NC(CSS(=O)(=O)c1ccccc1)C(=O)O (stereo unspecified) | inactive: > 10 µM
12 | Cc1nc(C)c(C(=O)NNC(N)=S)cc1C(=O)NNC(N)=S | inactive: > 100 µM
13 | CC(C)=CCC/C(C)=C/Cc1c(O)ccc2c1[nH]c1cc(O)c(C)cc12 | inactive: > 25 µM
14 | COc1ccc(C2SC(=N)Nc3c2c(C)nn3C(=O)c2ccncc2)cc1 (stereo unspecified) | inactive: > 100 µM
15 | COc1ccc([C@@]23CCC(=O)C[C@@H]2N(C)CC3)cc1OC | inactive: > 100 µM
16 | C=CC[C@H](O)[C@@](NC(=O)OCc1ccccc1)(Sc1ccc(C)cc1)C(F)(F)F | inactive: 66.5 µM
17 | O=C(c1ccccc1)N1OCCC1Nc1ccc(Br)cc1 (stereo unspecified) | inactive: > 10 µM
18 | Cc1cc(NS(=O)(=O)c2ccc(NC(=O)c3cccn4c(=O)c5ccccc5nc34)cc2)no1 | inactive: > 100 µM
19 | N#CC(C#N)=C/C=C(\Sc1c(Cl)c(Cl)nc(Cl)c1Cl)c1ccc(Cl)cc1 | inactive: 20.8 µM
20 | CC(C)(C)OC(=O)N1C[C@H](CC(=O)OCc2ccccc2)C[C@H]1C(=O)OCC(Cl)(Cl)Cl | inactive: > 50 µM
21 | CC1CCCC(C(O)CC2CC(=O)N(c3ccccc3)C(=O)C2)C1=O (stereo unspecified) | inactive: > 100 µM
22 | Cc1ccc([N+](=O)[O-])cc1NC(=O)/C(=N/NC(=S)NN)C1SC(=S)NC1=O (stereo unspecified) | inactive: > 100 µM
23 | O=c1c2cc(Br)ccc2oc2nc3n(c(=O)c12)CCCS3 | inactive: > 100 µM

Row | Structure (SMILES) | GI50
24 | C=C1C(O)C23CCC4C(C(=O)O)(C(=O)O)CC(OC5OC(CO)C(O)C(OC(=O)CCc6ccccc6)C5NC(=O)CC(C)C)CC4(C)C2CCC1(O)C3 (stereo unspecified) | inactive: > 100 µM
25 | O=C1C(/C=C/c2ccc(Cl)cc2)=NNC2N1N=C1NC(=O)C3(NN12)c1ccccc1-c1ccccc13 (stereo unspecified) | inactive: > 100 µM
26 | C=CC[C@H]1O[Si](C(C)(C)C)(C(C)(C)C)[C@H](C)[C@H]1C | inactive: > 100 µM
27 | CCOC(=O)C(Cc1ccccc1)NC(=O)c1ccc(/N=N/N(C)C)cc1 (stereo unspecified) | inactive: > 100 µM
28 | CO/C(=N\N=C\c1ccc(C(F)(F)F)cc1)c1ccncc1 | inactive: > 10 µM
29 | CCCCCC/C=C1\CCC(CN(C)C)C1=O (stereo unspecified) | inactive: 18.2 µM
30 | CC(=O)OC12C(C)=C(C)C(=O)N1c1ccccc1N2C(C)=O (stereo unspecified) | inactive: > 100 µM
31 | O=C(C/N=C(\CN(c1ccccc1)c1ccccc1)Oc1c(Cl)cc(Cl)cc1Cl)N1c2ccccc2Sc2ccccc21 | inactive: > 100 µM
32 | CCn1c(-c2cc3ccccc3cc2OC(C)=O)n[nH]c1=S | inactive: 32.5 µM
33 | COc1cc2c(cc1OS(C)(=O)=O)N=C[C@@H]1CCCN1C2=O | inactive: > 100 µM
34 | CN(C)CCCN1c2ccccc2Sc2cnccc21 | inactive: > 100 µM
35 | Cc1cc(C)c2c(c1)CC1(Cc3ccc(C)c(C)c3C1=O)C2=O (stereo unspecified) | inactive: > 100 µM
36 | [N-]=[N+]=NC1C2CC3CC(C2)CC1C3 (stereo unspecified) | inactive: > 100 µM
37 | Cc1cccc(C2=NC(C)(C)C(C)(C)N=C2c2cccc(C)n2)n1 | inactive: > 100 µM
38 | CCOC(=O)c1ccc(N(C)Cc2cnc3nc(N)nc(N)c3n2)cc1 | inactive: 26.5 µM
39 | O=c1cc(N=P(c2ccccc2)(c2ccccc2)c2ccccc2)n(-c2ccccc2)c(=O)n1-c1ccccc1 | inactive: 19.1 µM
40 | O=C1/C(=C\c2cccc(Oc3ccccc3)c2)SC(c2ccccc2)N1c1ccccc1Cl (stereo unspecified) | inactive: 46.3 µM
41 | c1ccc2cc3[s+]snc3cc2c1 | inactive: > 100 µM
42 | CC1(c2nc3ccccc3[nH]2)CCC(C(=O)O)C(C)(C)O1 (stereo unspecified) | inactive: > 100 µM
43 | CNC1=Nc2ccc(Cl)cc2C(OP(=O)(N2CCOCC2)N2CCOCC2)=NC1 | inactive: > 100 µM
44 | COC(=O)C12C3C4C1C1C2C3C41C(=O)OC(C)(C)C (stereo unspecified) | inactive: > 100 µM
45 | CC(Oc1ccccc1Cl)C(=O)NN1C(=O)CC(=O)N(c2ccc(Cl)cc2)C1=S (stereo unspecified) | inactive: 37.6 µM
46 | Oc1cc(O)c2c(c1)OC(c1ccc(O)c(O)c1)C(OC1(c3cc(O)c(O)c(O)c3)Oc3cc(O)cc(O)c3C(O)C1O)C2 (stereo unspecified) | inactive: 43.1 µM

— ChEMBL document CHEMBL1201862, “PubChem BioAssay data set” (2004)
